Assay results from the supplement of paper PMC11348887.
Structures can show the parent of a compound that is named as a salt. This is one part of the list. Rule as the data show it: active = -2 or less and inactive = the rest. Most values come without repeats; read them as rough.

tested on: hPSC-derived cortical neurons (WA09); test: nuclei number (viability) z-score; higher = more surviving cells; conditions: 5 µM; treatment: days 7-14 after plating, readout day 21
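Also: nuclei counted from DAPI counterstain by automated high-content image analysis, four fields per well at ×20 in 384-well plates, with sequential b-score then z-score normalization.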

Structure (SMILES) | nuclei number (z-score)
CS(=O)(=O)N1CCc2c(-c3cnc(N)nc3)nc(N3CCOCC3)nc21 | inactive: 0.775
CC[C@H](C)C(=O)O[C@H]1CCC=C2C=C[C@H](C)[C@H](CC[C@@H]3C[C@@H](O)CC(=O)O3)[C@H]21 [Mevastatin] | inactive: -0.306
Nc1cc(C(Cl)=C(Cl)Cl)c(S(N)(=O)=O)cc1S(N)(=O)=O [Clorsulon] | inactive: 2.23
Cc1ccccc1CN1C2=NCCN2C(=O)C2=C1CCN(Cc1ccccc1)C2 [TIC10 Analogue] | inactive: -0.813
C1CNCCN1 [Piperazine] | inactive: 0.884
NCCOCCOCCNC(=O)Cc1ccc(Nc2nc(NCc3ccc(F)cc3)nc(NCC3CCCCC3)n2)cc1 [AP-III-a4 (ENOblock)] | active: -5.59
CC(C)CC(CC(=O)NO)C(=O)N[C@@H](Cc1ccc2ccccc2c1)C(=O)N[C@@H](C)C(=O)NCCN (some centres not stated) | inactive: 0.0895
C=CC(=O)Nc1cccc(Oc2nc(Nc3ccc(N4CCN(C)CC4)cc3OC)ncc2Cl)c1 | inactive: -0.327
O=C(/C=C/c1ccc(O)c(O)c1)OCCc1ccccc1 [Caffeic Acid Phenethyl Ester] | inactive: -1.83
CC(=O)OCC(CCn1cnc2cnc(N)nc21)COC(C)=O [Famciclovir] | inactive: 0.606
COc1ccc([C@@H]2CC(=O)c3c(O)cc(O[C@@H]4O[C@H](CO)[C@@H](O)[C@H](O)[C@H]4O[C@@H]4O[C@@H](C)[C@H](O)[C@@H](O)[C@H]4O)cc3O2)cc1O [Neohesperidin] | active: -3.96
NNc1nncc2ccccc12 [Hydralazine HCl] | inactive: -1.47
C[C@H](CCC(=O)O)[C@H]1CC[C@H]2[C@@H]3[C@H](O)C[C@@H]4C[C@H](O)CC[C@]4(C)[C@H]3CC[C@]12C [Chenodeoxycholic Acid] | inactive: -0.0665
CCN1CCN(C(=O)N[C@@H](C(=O)N[C@@H]2C(=O)N3[C@@H]2SC(C)(C)[C@@H]3C(=O)O)c2ccccc2)C(=O)C1=O [Piperacillin Sodium] | inactive: 0.272
CO[C@@H]1[C@@H](OC(N)=O)[C@@H](O)[C@H](Oc2ccc3c(O)c(NC(=O)c4ccc(O)c(CC=C(C)C)c4)c(=O)oc3c2C)OC1(C)C [Novobiocin Sodium] | inactive: 0.544
CN(NC(=O)CC(=O)NN(C)C(=S)c1ccccc1)C(=S)c1ccccc1 [Elesclomol (STA-4783)] | inactive: -0.251
O=C(O[C@H]1CN2CCC1CC2)N1CCc2ccccc2[C@@H]1c1ccccc1 [Solifenacin succinate] | inactive: -0.666
NC(=O)N/N=C/c1ccc([N+](=O)[O-])o1 [Nitrofural] | inactive: 0.19
CC(C)C[C@H](NC(=O)[C@H](CCc1ccccc1)NC(=O)CN1CCOCC1)C(=O)N[C@@H](Cc1ccccc1)C(=O)N[C@@H](CC(C)C)C(=O)[C@@]1(C)CO1 [Carfilzomib (PR-171)] | active: -7.18
O=S(=O)(c1ccccc1)c1cnc2c(N3CCNCC3)cccc2c1 | inactive: -0.35
CC(=O)OCOC(=O)CN(CC(=O)OCOC(C)=O)c1ccccc1OCCOc1ccccc1N(CC(=O)OCOC(C)=O)CC(=O)OCOC(C)=O | inactive: -0.526
CN1CCCCC1CCN1c2ccccc2Sc2ccc([S+](C)[O-])cc21 (configuration not stated) [Mesoridazine Besylate] | inactive: -0.482
COc1cc(OC)c(C=C2C(=O)Nc3ccccc32)c(OC)c1 | active: -3.07

Structure (SMILES) | nuclei number (z-score)
CN1CCCC(n2nc(Cc3ccc(Cl)cc3)c3ccccc3c2=O)CC1 (configuration not stated) [Azelastine HCl] | inactive: 0.175
CN(C)CCC[C@@]1(c2ccc(F)cc2)OCc2cc(C#N)ccc21 [Escitalopram Oxalate] | inactive: 1.51
CCCC(=O)Nc1ncnc2c1ncn2[C@@H]1O[C@@H]2COP(=O)(O)O[C@H]2[C@H]1OC(=O)CCC [Dibutyryl-cAMP (Bucladesine)] | inactive: 0.0233
CC1=CC(=O)NS(=O)(=O)O1 [Acesulfame Potassium] | inactive: 0.0624
COC1=CC(c2cc3ccccc3[nH]2)=N/C1=C\c1[nH]c(C)cc1C [Obatoclax Mesylate (GX15-070)] | active: -2.64
CC(C)C[C@@H](C=O)NC(=O)[C@H](CC(C)C)NC(=O)[C@H](CC(C)C)NC(=O)OCc1ccccc1 | active: -7.88
CC(=O)Oc1cccc2c1C(=O)c1c(OC(C)=O)cc(C(=O)O)cc1C2=O [Diacerein] | inactive: 0.111
CCN(CC)Cc1ccc2cc(COC(=O)Nc3ccc(C(=O)NO)cc3)ccc2c1 [Givinostat (ITF2357)] | active: -6.5
CC(C)(C#N)c1ccc(N2C(=O)OCc3cnc4ccc(-c5cnc6ccccc6c5)cc4c32)cc1 | inactive: 0.548
N=C(N)NC(=N)N1CCOCC1 [Moroxydine HCl] | inactive: 0.797
COc1ccc(NS(=O)(=O)c2ccc(N)cc2)nn1 [Sulfamethoxypyridazine] | inactive: 0.404
Nc1ccc(C(=O)NCC(=O)O)cc1 [4-Aminohippuric Acid] | inactive: 0.49
Nc1ccc(C(=O)NCC(=O)O)cc1 [Sodium 4-aminohippurate Hydrate] | inactive: -0.348
Cn1ncc(Cl)c1-c1cc(C(=O)N[C@H](CN)Cc2ccc(F)c(F)c2)oc1Cl | active: -6.86
CCC[C@H](N[C@@H](C)C(=O)N1[C@H](C(=O)O)C[C@@H]2CCCC[C@@H]21)C(=O)OCC [Perindopril Erbumine] | inactive: 0.636
CCCC(=O)O[C@]1(C(=O)COC(C)=O)CC[C@H]2[C@@H]3C[C@H](F)C4=CC(=O)C=C[C@]4(C)[C@@]3(F)[C@@H](O)C[C@@]21C [Difluprednate] | inactive: 0.662
CC1(C)OC(=O)NC1=O [5,5-Dimethyloxazolidine-2,4-dione] | inactive: 5.12
CN(C)CCc1c[nH]c2ccc(Cn3cncn3)cc12 [Rizatriptan Benzoate] | inactive: -0.341
Nc1ccc(S(=O)(=O)c2ccc(N)cc2)cc1 [Dapson] | inactive: 0.415
OC[C@H]1O[C@@H](Oc2ccc(O)cc2)[C@H](O)[C@@H](O)[C@@H]1O [Arbutin] | inactive: 0.171
O=C(c1ccc(C(=O)N2CCC(N3CCCC3)CC2)c(Nc2ccccc2)c1)N1CCC(N2CCCC2)CC1 | inactive: 0.418
COc1ccc(-c2oc3c(CC=C(C)C)c(O[C@@H]4O[C@H](CO)[C@@H](O)[C@H](O)[C@H]4O)cc(O)c3c(=O)c2O[C@@H]2O[C@@H](C)[C@H](O)[C@@H](O)[C@H]2O)cc1 [Icariin] | inactive: 5.53
C[C@H]1[C@@H](O)O[C@@H]2O[C@@]3(C)CC[C@H]4[C@H](C)CC[C@@H]1[C@@]24OO3 [Dihydroartemisinin (DHA)] | inactive: 3.12

Structure (SMILES) | nuclei number (z-score)
CCn1cc(C(=O)O)c(=O)c2ccc(C)nc21 [Nalidixic acid] | inactive: -0.661
COc1ccc2cc(CCC(C)=O)ccc2c1 [Nabumetone] | inactive: 0.398
Oc1c(I)cc(I)c2cccnc12 [Diiodohydroxyquinoline] | inactive: 0.0215
O=C(CCCN1CC=C(n2c(=O)[nH]c3ccccc32)CC1)c1ccc(F)cc1 [Droperidol] | inactive: 0.348
CCO[C@@H]1OC(=O)C[C@@H]1NC(=O)[C@@H]1CCCN1C(=O)[C@@H](NC(=O)c1ccc(N)c(Cl)c1)C(C)(C)C | inactive: 9.73
Cc1ccc(NC(=O)c2ccc(CN3CCN(C)CC3)cc2)cc1Nc1nc(-c2cccnc2)cs1 [Masitinib (AB1010)] | inactive: -0.145
COc1nc(C)nc(Cl)c1NC1=NCCN1 [Moxonidine] | inactive: -0.0368
CCCC[C@@H](C=O)NC(=O)[C@H](CC(C)C)NC(=O)OCc1ccccc1 [Calpeptin] | inactive: 2.59
O=C(Nc1cc(C(F)(F)F)ccc1N1CCCCC1)c1ccncc1 | inactive: -1.02
COc1cc2nc(N3CCN(C(=O)c4ccco4)CC3)nc(N)c2cc1OC [Prazosin HCl] | inactive: 0.342
NCCS(=O)(=O)O [Taurine] | inactive: 0.205
Cc1cc(Cn2cnc3c2CC(C(=O)O)N(C(=O)C(c2ccccc2)c2ccccc2)C3)ccc1N(C)C (configuration not stated) | inactive: 3.53
O=c1c(O)c(-c2cc(O)c(O)c(O)c2)oc2cc(O)cc(O)c12 [Myricetin] | inactive: -0.682
Cc1ccc(S(=O)(=O)NC(=O)NN2CC3CCCC3C2)cc1 (configuration not stated) [Gliclazide] | inactive: 1.1
O=C(O)CCNc1cc(N2CCc3ccccc3CC2)nc(-c2ccccn2)n1 | inactive: -0.634
Cc1cc([N+](=O)[O-])ccc1NS(=O)(=O)c1cc(Cl)ccc1Cl | inactive: 0.286
COc1ccc(COc2ccc(Cc3cnc(N)nc3N)cc2OC)cc1 | inactive: 0.788
O=C([O-])c1ccccc1O.[Na+] [Sodium salicylate] | inactive: 2.01
COc1ccc2[nH]cc(CCNC(C)=O)c2c1 [Melatonin] | inactive: 0.0121
NC[C@H]1O[C@H](O[C@H]2[C@H](O[C@@H]3O[C@H](CO)[C@@H](O)[C@H]3O)[C@@H](O)[C@H](N)C[C@@H]2N)[C@H](N)[C@@H](O)[C@@H]1O [Ribostamycin Sulfate] | inactive: -0.418
Cc1ccc(C(=O)c2cc(O)c(O)c([N+](=O)[O-])c2)cc1 [Tolcapone] | inactive: 0.54
